Among the data in the supplement of paper PMC12297408 are gametocyte viability values, retold here.

Counter-ions that a name gives are not always drawn. Hit rate of the full screen: of about 1,300 compounds, about 40 (3%) showed activity. This is one part of the list.

For the assay, the system named is Plasmodium falciparum NF54/iGP1_RE9H ulg8 stage V gametocytes. The assay is described as follows: gametocyte viability (luciferase signal relative to DMSO control) (% of DMSO control); higher = less gametocytocidal activity, active = 50 or less. As to conditions: exposure time: 72 h. The procedure, abridged: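 Stage V gametocytes of the NF54/iGP1_RE9Hulg8 line (day 12; ~2.5% gametocytemia, 3% hematocrit), in medium containing 0.5% Albumax II, were dispensed into 96-well plates with compounds spotted in nanolitre volumes from 10 mM DMSO stocks, for final concentrations of 10 µM or 1 µM in a single well each. After 72 h at 37 °C, 90 µl from each well was combined with 10 µl D-luciferin (30 mg/ml), and luminescence was measured on an IVIS Lumina II. Viability was expressed against the mean of the DMSO vehicle wells on the same plate.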

As to `OC(c1cc(C(F)(F)F)nc2c(C(F)(F)F)cccc12)C1CCCCN1` (stereo not drawn) [Mefloquine hydrochloride], the gametocyte viability is, setting by setting: (concentration: 1 µM) inactive: 83.9; (concentration: 10 µM) inactive: 78.

As to `CNCCCC12CCC(c3ccccc31)c1ccccc12` [Maprotiline hydrochloride], the gametocyte viability (concentration: 1 µM) is inactive: 90.7 and the gametocyte viability (concentration: 10 µM) is inactive: 79.7.

Take `C[C@@H]1C[C@H]2[C@@H]3C[C@H](F)C4=CC(=O)C=C[C@]4(C)[C@@]3(Cl)[C@@H](O)C[C@]2(C)[C@H]1C(=O)COC(=O)C(C)(C)C` [Clocortolone pivalate]: the gametocyte viability is inactive: 86.8 (concentration: 1 µM) and inactive: 82.4 (concentration: 10 µM).

Take `C[C@@H](O)[C@H]1C(=O)N2C(C(=O)O)=C(S[C@@H]3CN[C@H](C(=O)N(C)C)C3)[C@H](C)[C@H]12` [Meropenem]: the gametocyte viability was inactive: 80.4 (concentration: 1 µM) and inactive: 79.3 (concentration: 10 µM).

As to `CC(=O)O[C@H]1C[C@@H]2CC[C@@H]3[C@H](CC[C@@]4(C)[C@H]3C[C@H]([N+]3(C)CCCCC3)[C@@H]4OC(C)=O)[C@@]2(C)C[C@@H]1N1CCCCC1` [Vecuronium bromide], the gametocyte viability reads like this: (concentration: 1 µM) inactive: 85.2; (concentration: 10 µM) inactive: 93.1.

Consider `CC1(C)O[C@@H]2C[C@H]3[C@@H]4CCC5=CC(=O)CC[C@]5(C)[C@@]4(F)[C@@H](O)C[C@]3(C)[C@]2(C(=O)CCl)O1` [Halcinonide], for which the gametocyte viability (concentration: 1 µM) was inactive: 88.3 and the gametocyte viability (concentration: 10 µM) was inactive: 76.8.

As for `C[C@]12C=CC(=O)C=C1CC[C@H]1[C@@H]3C[C@@H](O)[C@](O)(C(=O)CO)[C@@]3(C)C[C@H](O)[C@@]12F` [Triamcinolone], the gametocyte viability by setting is: (concentration: 1 µM) inactive: 91.2; (concentration: 10 µM) inactive: 88.2.

As for `CCN(CC)C(=O)/C(C#N)=C/c1cc(O)c(O)c([N+](=O)[O-])c1` [Entacapone], the gametocyte viability runs as follows: (concentration: 1 µM) inactive: 86.2; (concentration: 10 µM) inactive: 90.1.

In the case of `CN(C/C=C/c1ccccc1)Cc1cccc2ccccc12` [Naftifine hydrochloride], the gametocyte viability reads like this: (concentration: 1 µM) inactive: 83.3; (concentration: 10 µM) inactive: 79.5.

For `CC(=O)CCCCn1c(=O)c2c(ncn2C)n(C)c1=O` [Pentoxifylline], the gametocyte viability was inactive: 82.3 (concentration: 1 µM) and inactive: 83.7 (concentration: 10 µM).

For the molecule `CN1C(=O)OC(C)(C)C1=O` [Trimethadione], the gametocyte viability runs as follows: (concentration: 1 µM) inactive: 82.9; (concentration: 10 µM) inactive: 88.6.

Consider `OCCN1CCN(CCCN2c3ccccc3C=Cc3ccccc32)CC1` [Opipramol dihydrochloride], for which the gametocyte viability was inactive: 90.6 (concentration: 1 µM) and inactive: 98.5 (concentration: 10 µM).

For the molecule `CC(C)NC[C@H](O)COc1cccc2ccccc12` [(S)-propranolol hydrochloride], the gametocyte viability (concentration: 1 µM) is inactive: 86.8 and the gametocyte viability (concentration: 10 µM) is inactive: 87.3.

As for `NS(=O)(=O)c1cc(Cl)c(Cl)c(S(N)(=O)=O)c1` [Dichlorphenamide], the gametocyte viability was inactive: 99.1 (concentration: 1 µM) and inactive: 97.8 (concentration: 10 µM).

For the molecule `CCCCCNC(=N)N/N=C/c1c[nH]c2ccc(OC)cc12` [Tegaserod maleate], the gametocyte viability is, setting by setting: (concentration: 1 µM) inactive: 88.4; (concentration: 10 µM) active: 6.12.

`CCN1CCCC(OC(=O)C(c2ccccc2)c2ccccc2)C1` (stereo not drawn) [Piperidolate hydrochloride]: the gametocyte viability by setting is: (concentration: 1 µM) inactive: 82.8; (concentration: 10 µM) inactive: 86.5.

`C[C@H](Cc1cc2c(c(C(N)=O)c1)N(CCCO)CC2)NCCOc1ccccc1OCC(F)(F)F` [Silodosin]: the gametocyte viability (concentration: 1 µM) was inactive: 84.5 and the gametocyte viability (concentration: 10 µM) was inactive: 84.

With `Cc1onc(-c2c(F)cccc2Cl)c1C(=O)N[C@@H]1C(=O)N2[C@@H]1SC(C)(C)[C@@H]2C(=O)O` [Flucloxacillin sodium], the gametocyte viability is, setting by setting: (concentration: 1 µM) inactive: 90.2; (concentration: 10 µM) inactive: 87.3.

Take `CN(C)CCCSC(=N)N` [Dimaprit dihydrochloride]: the gametocyte viability runs as follows: (concentration: 1 µM) inactive: 91.2; (concentration: 10 µM) inactive: 89.9.

For `O=C(NCCN1CCOCC1)c1ccc(Cl)cc1` [Moclobemide], the gametocyte viability was inactive: 84.9 (concentration: 1 µM) and inactive: 86.1 (concentration: 10 µM).

`N=C(N)NCc1cccc(I)c1` [Iobenguane sulfate]: the gametocyte viability is inactive: 99.3 (concentration: 1 µM) and inactive: 100 (concentration: 10 µM).

Take `NC(=O)OCC(COC(N)=O)c1ccccc1` [Felbamate]: the gametocyte viability by setting is: (concentration: 1 µM) inactive: 81.3; (concentration: 10 µM) inactive: 83.8.

As for `C[C@H]1NC(=O)NC1=O` [Methylhydantoin-5-(D)], the gametocyte viability is, setting by setting: (concentration: 1 µM) inactive: 88.5; (concentration: 10 µM) inactive: 88.5.

Regarding `Cc1ccnc(NS(=O)(=O)c2ccc(N)cc2)n1` [Sulfamerazine], the gametocyte viability reads like this: (concentration: 1 µM) inactive: 88.8; (concentration: 10 µM) inactive: 88.3.

As for `CNC[C@H](O)[C@@H](O)[C@H](O)[C@H](O)CO` [Meglumine], the gametocyte viability was inactive: 89.7 (concentration: 1 µM) and inactive: 82.4 (concentration: 10 µM).

In the case of `Nc1ccc(S(=O)(=O)Nc2cnc3ccccc3n2)cc1` [Sulfaquinoxaline sodium salt], the gametocyte viability was inactive: 91.2 (concentration: 1 µM) and inactive: 84.6 (concentration: 10 µM).

Regarding `NCCCC(O)(P(=O)(O)O)P(=O)(O)O` [Alendronate sodium], the gametocyte viability runs as follows: (concentration: 1 µM) inactive: 78.2; (concentration: 10 µM) inactive: 80.

On to `CCCCNc1cc(C(=O)O)cc(S(N)(=O)=O)c1Oc1ccccc1` [Bumetanide], for which the gametocyte viability is inactive: 92.3 (concentration: 1 µM) and inactive: 92.1 (concentration: 10 µM).

Consider `CNC(=O)c1c(I)c(C(=O)NCC(=O)Nc2c(I)c(C(=O)O)c(I)c(C(=O)NCCO)c2I)c(I)c(N(C)C(C)=O)c1I` [Ioxaglic acid], for which the gametocyte viability (concentration: 1 µM) was inactive: 83.2 and the gametocyte viability (concentration: 10 µM) is inactive: 87.8.
